In the supplement of paper PMC9588766 one finds cell viability data, which are given here for 49 compounds.

Each structure is given as a SMILES string. Counter-ions that a name gives are not always drawn. ± gives the standard deviation of the averaged measurements. Whole data set: some 2,000 compounds, median “cell viability relative to DMSO control (compound alone)” near 0.98, cut for the lowest 2% near 0.23. The list shows a part of the results.

For the assay, the system named is PDC-DUC18828. Briefly: cell viability relative to DMSO control (compound alone) (fraction); PDC-DUC18828 is a patient-derived cholangiocarcinoma cell line; higher = less growth inhibition. Particulars: 1 µM; 72 h. The procedure:
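Selleck Bioactive library screen in the patient-derived FGFR2-G3BP2 fusion-positive ICC cell line PDC-DUC18828 (500 cells/well). Each compound was tested at 1 uM alone, in triplicate, for 72 h. Viability was read by CellTiter-Glo and normalised to plate DMSO controls.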
On to `CN(C)C(=O)[C@H](O)[C@H](Cc1ccccc1)NC(=O)c1cc2cc(Cl)ccc2[nH]1`, for which the cell viability turned out to be 0.927 ± 0.066.
With `O=C(Oc1cc(S(=O)(=O)c2ccccc2)ccc1[N+](=O)[O-])c1ccc(Cl)cc1`, the cell viability was 0.984 ± 0.087.
As for `Cc1cc(CN2CCN(c3c(Br)cnc4nc(-c5ccc(N6CCN(C)CC6)cc5)[nH]c34)CC2)no1`, the figure is 0.805 ± 0.054.
Compound `CCN1CCN(Cc2ccc(C(=O)Nc3ccc(C)c(Oc4ccc5c(c4)CC(=O)N5)c3)cc2C(F)(F)F)CC1` yielded a cell viability of 0.989 ± 0.056.
The compound `N[C@@H](Cc1cc(I)c(Oc2ccc(O)c(I)c2)c(I)c1)C(=O)O` [Liothyronine Sodium] showed a cell viability of 0.92 ± 0.053.
As for `COCCCN1CCC(NC(=O)c2cc(Cl)c(N)c3c2OCC3)CC1` [Prucalopride], the figure is 0.942 ± 0.069; as for `COCCCN1CCC(NC(=O)c2cc(Cl)c(N)c3c2OCC3)CC1` [Prucalopride Succinat], 0.935 ± 0.029; as for `CNc1nc(Nc2cn(C(C)(C)C#N)nc2C)ncc1C(F)(F)F`, 1.02 ± 0.032.
As for `C=CC(=O)N1C/C(=C\c2ccc([N+](=O)[O-])cc2)C(=O)/C(=C/c2ccc([N+](=O)[O-])cc2)C1`, the figure is 0.244 ± 0.014; as for `COC(=O)C1=C(C#N)NC(C)=C(C(=O)OC(C)C)C1c1cccc([N+](=O)[O-])c1` (centres undefined) [Nilvadipine], 1.01 ± 0.058.
In the case of `C[C@H](CCC(=O)O)[C@H]1CC[C@H]2[C@@H]3[C@@H](O)C[C@@H]4C[C@H](O)CC[C@]4(C)[C@H]3CC[C@]12C` [Ursodiol], the cell viability was determined as 0.956 ± 0.0099.
Take `O=C(CCCN1CCN(c2ccccn2)CC1)c1ccc(F)cc1` [Azaperone]: the cell viability was 0.921 ± 0.052.
As for `O=C(Nc1ccncc1)c1cc([N+](=O)[O-])ccc1Cl`, the figure is 0.904 ± 0.025; as for `C[C@]12CC[C@@H]3c4ccc(OC(=O)c5ccccc5)cc4CC[C@H]3[C@@H]1CC[C@@H]2O` [Estradiol Benzoate], 1.01 ± 0.021.
As for `Cc1ccc(F)c(NC(=O)Nc2ccc(-c3cccc4[nH]nc(N)c34)cc2)c1` [Linifanib (ABT-869)], the figure is 0.915 ± 0.031; as for `CC(C)OC(=O)C1=CN(C(=O)c2ccc(F)c(F)c2)CC(C)(C)c2c1[nH]c1ccccc21`, 1.08 ± 0.053; as for `CN1CCN(C(c2ccccc2)c2ccccc2)CC1` [Cyclizine 2HCl], 1.02 ± 0.027.
`CC(C)(C)[N+]([O-])=Cc1ccc(S(=O)(=O)O)cc1S(=O)(=O)O` displayed a cell viability of 0.972 ± 0.099.
As for `O=C(/C=C\n1cnc(-c2cc(C(F)(F)F)cc(C(F)(F)F)c2)n1)N1CC(F)(F)C1`, the figure is 0.591 ± 0.057; as for `Cc1ccc(NC(=O)c2cccc(C(C)(C)C#N)c2)cc1Nc1ccc2ncn(C)c(=O)c2c1`, 0.8757 ± 0.0044; as for `OCCN(CCO)c1nc(N2CCCCC2)c2nc(N(CCO)CCO)nc(N3CCCCC3)c2n1` [Dipyridamole], 0.941 ± 0.046.
Regarding `CC[C@H](CO)Nc1nc(NCc2ccccc2)c2ncn(C(C)C)c2n1` [Roscovitine (Seliciclib,CYC202)], the cell viability came out at 1.03 ± 0.023.
Then `CC(C)(CO)C(O)C(=O)NCCC(=O)O` [Calcium D-Panthotenate], with 1 ± 0.036.
Then `Cc1c(-c2cnccn2)ssc1=S` [Oltipraz], with 0.958 ± 0.034; and `Cc1cccc(CC(=O)N2CCc3c2ccc(-c2cn(C)c4ncnc(N)c24)c3F)n1`, with 0.939 ± 0.047.
Take `COc1ccc(-n2c(SCCCN3C(=O)c4cccc5cccc(c45)C3=O)nnc2-c2ccncc2)cc1`: the cell viability was 0.848 ± 0.035.
As for `C/C(=C\C(=O)OCCCCCCCCC(=O)O)C[C@@H]1OC[C@H](C[C@@H]2O[C@H]2[C@@H](C)[C@H](C)O)[C@@H](O)[C@H]1O` [Mupirocin], the figure is 0.995 ± 0.14; as for `COc1ccc(C2=N[C@@H](c3ccc(Cl)cc3)[C@@H](c3ccc(Cl)cc3)N2C(=O)N2CCNC(=O)C2)c(OC(C)C)c1` [Nutlin-3], 1.14 ± 0.038; as for `COc1ccc(C2=N[C@@H](c3ccc(Cl)cc3)[C@@H](c3ccc(Cl)cc3)N2C(=O)N2CCNC(=O)C2)c(OC(C)C)c1` [Nutlin-3a], 1.02 ± 0.065.
In turn, `CN/C(=N\CCSCc1nc[nH]c1C)NC#N` [Cimetidine] had a cell viability of 1.02 ± 0.03.
With `NC(=O)c1ccc(I)c([N+](=O)[O-])c1` [Iniparib (BSI-201)], the cell viability turned out to be 1.07 ± 0.074.
With `O=C(O)c1cc(/N=N/c2ccc(S(=O)(=O)Nc3ccccn3)cc2)ccc1O` [Sulfasalazine], the cell viability is 1.07 ± 0.016.
Compound `c1coc(CNc2ncnc3[nH]cnc23)c1` [Kinetin] showed a cell viability of 0.969 ± 0.034.
`CS(=O)(=O)c1ccc(-c2nnc(/C=C/c3nnc(-c4ccc(C#N)cc4)o3)n2-c2ccccc2Cl)nc1` had a cell viability of 0.879 ± 0.042.
`C[C@]12CCC3=C4CCC(=O)C=C4CC[C@H]3[C@@H]1CC[C@@]2(O)CC#N` [Dienogest] yielded a cell viability of 1.04 ± 0.05.
Then `C[C@@H]1C[C@H]2[C@@H]3CCC4=CC(=O)C=C[C@]4(C)[C@@]3(Cl)[C@@H](O)C[C@]2(C)[C@@]1(OC(=O)c1ccco1)C(=O)CCl` [Mometasone furoate], with 0.918 ± 0.042; and `CCOC(=O)[C@H](CCc1ccccc1)N[C@@H](C)C(=O)N1C(=O)N(C)C[C@H]1C(=O)O` [Imidapril HCl], with 1.15 ± 0.015; and `COc1cc2ncnc(Nc3cccc(Cl)c3)c2cc1OC` [AG-1478 (Tyrphostin AG-1478)], with 0.942 ± 0.079.
Take `O=c1oc2cc(O)ccc2s1` [Tioxolone]: the cell viability amounted to 1.07 ± 0.04.
As for `CCn1c(-c2nonc2N)nc2c(C#CC(C)(C)O)ncc(OC[C@H]3CCCNC3)c21`, the figure is 0.909 ± 0.04; as for `O=S(=O)(O)Oc1ccc(C(c2ccc(OS(=O)(=O)O)cc2)c2ccccn2)cc1` [Sodium Picosulfate], 0.998 ± 0.013.
As for `CCC[C@H](N[C@H]1CCc2cc(F)cc(F)c2C1)C(=O)Nc1cn(C(C)(C)CNCC(C)(C)C)cn1`, the figure is 0.988 ± 0.053; as for `CN1C(=O)C(Cc2c[nH]c3ccccc23)NC1=S` (centres undefined) [Necrostatin-1], 1.01 ± 0.021; as for `Cc1cc2c(s1)Nc1ccccc1N=C2N1CCN(C)CC1` [Olanzapine], 1.02 ± 0.02.
In turn, `CNC(=O)c1ccc(Nc2ncc(C(F)(F)F)c(NCc3nccnc3N(C)S(C)(=O)=O)n2)cc1` registered a cell viability of 0.884 ± 0.029.
`Cc1ccc(NC(=O)C2(c3ccc4c(c3)OC(F)(F)O4)CC2)nc1-c1cccc(C(=O)O)c1` [VX-809 (Lumacaftor)] returned a cell viability of 1.1 ± 0.069.
`Cn1cc(/C=C2\C(=O)Nc3cccnc32)c2ccccc21` yielded a cell viability of 1.03 ± 0.034.
In the case of `OCCOc1ccc(/C(=C(/CCCl)c2ccccc2)c2ccccc2)cc1` [Ospemifene], the cell viability was determined as 1.01 ± 0.062.
`CC(C)OC(=O)C(C)(C)Oc1ccc(C(=O)c2ccc(Cl)cc2)cc1` [Fenofibrate] displayed a cell viability of 1.05 ± 0.037.
